Test results published in the supplement of paper PMC11417369.
± gives the standard deviation of the averaged measurements. This is one part of the list.

Each sequence was assayed on PfAP2-I AP2 domain 3 (GST-tagged) (assay: gcPBM binding intensity (ln(normalized median fluorescence intensity)); higher = stronger DNA binding).
Method in brief: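 Using an Agilent 4 × 180k array, primer-extended double-stranded 36-bp intergenic genomic probes and negative controls were exposed for 1 h to GST-fused P. falciparum DNA-binding domains expressed in E. coli. Binding was carried out in 1× PBS with 1% milk, 0.2 mg/ml BSA, 0.5% salmon testes DNA and 0.03% Triton X-100, and protein was detected with Alexa488 anti-GST antibody and a 488 nm scan. Binding intensity is the highest Masliner-normalised natural-log median intensity across replicate spots of either probe orientation.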

Point of comparison: “ATAAAAAGAAAAAAGGGTACACTATACTATTTAAAA [XGTACX_site4467]”, “gcPBM binding intensity (ln)” value 7.85 ± 0.45. Against it:
- AACAGAAGCACATACACACACTCAAAAAAAAAAAAA [CACACA_site5652] — within error, 8.24 ± 0.17
- ATTTTATTCTAAAAAGGTACACATATTATTTTATGA [XGTACX_site7233] — within error, 7.55 ± 0.35
- TTAAAGCTTACATATACACACATACATAAATTCATA [CACACA_site8785] — within error, 7.72 ± 0.47
- TATGATGATATAAAAACACACACATATAATATAATA [CACACA_site8321] — within error, 7.87 ± 0.63
- GTAAAATAAAATATATGTACATATGTATATGAGGTA [XGTACX_site3743] — within error, 8.15 ± 0.6
- GACATATTCCCCCCCACACACACACCCACATACATA [CACACA_site2302] — higher, 10.8 ± 0.26
- TTTTGATCATCCAAAATATCTTCATCTGAACTACTA [CACACA_negctrl_site939] — within error, 7.4 ± 0.68
- ATTTAGAAATATATTTGTACATATATATATATATAT [XGTACX_site7129] — higher, 9.47 ± 0.35
- ATTCAAACAAATTAATGTACATATATATAAGATATT [XGTACX_site1531] — within error, 7.75 ± 0.43
- TACCCTGATCGGCATGCATGTAAGTAACAAATATAT [TGCATGCA_site153] — the same, 7.85 ± 0.67
- TGTTGATAAAAAATAAAAAATAAAAAAATAAAATAT [TGCATGCA_negctrl_site559] — within error, 7.67 ± 0.74
- CTACATATTAATATATGTACATATTAATATATCTAA [XGTACX_site7118] — within error, 7.65 ± 0.33
- ATATATACATATAAATGTACATAATTATTATGCACA [XGTACX_site1261] — higher, 11.3 ± 0.82
- TATAAAGCATATTAAAGTACTTATTTTCCTTTTTCT [XGTACX_site8892] — within error, 7.54 ± 0.61
- TTTTATTTTATTCTTAAATAAGTATTATAAAATATG [XGTACX_negctrl_site201] — within error, 7.49 ± 0.39
- TATATATATATGTGCACACATAATAAAAAAAAAAAT [CACACA_site3831] — higher, 10.3 ± 0.11
- TTAATGTTGTATGGTTGTACAATAAGCCCCTTTTAA [XGTACX_site2484] — within error, 8.02 ± 0.4
- TTATTTGAACAATATGCACACATTTTATTTATTTTA [CACACA_site3420] — higher, 8.94 ± 0.2
- AACTTACTTGGACATACACACATATAGATTTATATA [CACACA_site7412] — within error, 8.04 ± 0.5
- GTACAAATGTTGTGTATATATACACACATACATATA [XGTACX_negctrl_site276] — within error, 8.02 ± 0.58
- ATGTAGTTTTATCAGTGTACAAGTATTTTATCACAT [XGTACX_site8958] — within error, 7.93 ± 0.58
- AAAATATATATATATATATATATATGTATACTCCTA [XGTACX_negctrl_site312] — within error, 8.22 ± 0.12
- TTATTTATAAATATTAATTTTTTTTTTTTTTTTTTT [XGTACX_negctrl_site105] — higher, 8.73 ± 0.12
- TTTTATGTTTCAAAATGTACATTAAAATATACCATA [XGTACX_site1713] — within error, 7.74 ± 0.5
- ATATATATATTTTTTAAACACACACCGAAATATTTG [CACACA_site8937] — higher, 8.95 ± 0.57
- TTAATTAAAACGAATACACACATAAATATATAAAAG [CACACA_site1254] — within error, 7.77 ± 0.61
- TTTTATTATTGAATACTAGTATATATAATATGAAGA [CACACA_negctrl_site910] — within error, 7.8 ± 0.35
- CATATGCATACTATACGTACATATGTATATAATATA [XGTACX_site7738] — within error, 8.03 ± 0.42
- AATATAATATAATGCACACATAAAAAAAAAATCAAA [CACACA_site122] — higher, 11.2 ± 1
- TTTTTATATAACCTTCTTAATTCTTTTTTTTTTTTT [XGTACX_negctrl_site591] — within error, 7.43 ± 0.61
- AAAACAAAATTATGAACATGCAAGGTAAAATTGTAA [TGCATGCA_site775] — within error, 8.49 ± 0.74
- CACAAACAAAAACACACACACACACCGACAAAAATG [CACACA_site5362] — within error, 7.99 ± 0.33
- TTCTTTCTAGAATATTGTACATATATTGTTATTATA [XGTACX_site8425] — within error, 7.63 ± 0.38
- AGAAAGAAGATATATACACACAAAAAAAGATATATA [CACACA_site6779] — within error, 7.71 ± 0.6
- TATAAATATTTATACACACACACATTAATACCTATA [CACACA_site7604] — within error, 8.02 ± 0.47
- AAAAGAAGATAATACAGTACAGAATAATATAAAATA [XGTACX_site5962] — within error, 7.75 ± 0.73
- TTTTGTTAAAAAGATGTATATTTTATAAATATTTAT [CACACA_negctrl_site101] — within error, 7.51 ± 0.51
- AAATAAAATAAATAATATAAAATAATATATAAAAAA [CACACA_negctrl_site1777] — within error, 7.37 ± 0.47
- AAAAAAAAATTGTGTACACATAATTATATCATATGT [CACACA_site4500] — within error, 7.96 ± 0.26
- ATGGATAATAAGTTTACACACAAAAAAAAAGAAAAA [CACACA_site861] — within error, 7.67 ± 0.47
- ATAAGAATCATATTTAAACACACATACATATATATA [CACACA_site9106] — within error, 8.19 ± 0.79
- AAAAAAAAAAAATACACACACATAAAAAAAAAAATA [CACACA_site1858] — within error, 7.71 ± 0.22
- ATTATATTAACAATGACATGCAATTCTTAATCCTTA [TGCATGCA_site648] — within error, 7.74 ± 0.34
- ATTAAATAAACCATTACACACTTTTATGTTTTGAAA [CACACA_site1143] — within error, 7.83 ± 0.52
- TTTTTATTGGTGAATACACACGTATATATATATTAT [CACACA_site8756] — within error, 8.03 ± 0.69
- TAGTTACCTTAATATTGTACTTTTCTTTCATATATG [XGTACX_site1309] — within error, 7.75 ± 0.53
- CACTAAATAAGGAAAGTGCATAAAATAAAGGTTATA [GTGCAC_site9793] — higher, 10.4 ± 0.26
- GTGTCAAATTTTATAACACACAAAAGGTTATATAAG [CACACA_site7839] — within error, 7.79 ± 0.47
- ATAGTTTCTGGTAGCTGTACGAGTCGTAGAGTGCAG [XGTACX_site2022] — within error, 8.29 ± 0.36
- ATTTAAAAAATATATTGTACATATTTTATTATGTTT [XGTACX_site2984] — within error, 7.58 ± 0.28
- TACAGTTTTTCTTTGAATTTATCAAGTTTTTTTCCC [XGTACX_negctrl_site60] — within error, 7.49 ± 0.68
- CATACATATAAACACACACACACACCCACCCACAAA [CACACA_site8059] — within error, 8.56 ± 0.71
- TAGTTAGCCCAAGGGGTGCTAATTACTATCTAAATA — higher, 9.82 ± 0.35
- TATAGAAGCAAATTATGTACACAATATGGAAAATCA [XGTACX_site3345] — within error, 8.11 ± 0.49
- AACACCAATTCATATGCACACACATCTGCATATTAT [CACACA_site8523] — higher, 9.15 ± 0.29
- TTTATAAATATTCTCACACACTTTTTATTTTAACAA [CACACA_site6454] — within error, 7.7 ± 0.59
- GTCGAGGATATATAAAGTACATATATATATATGATA [XGTACX_site1128] — within error, 7.87 ± 0.38
- TAATGTATCTAAAATTGTACAAATATAAATATAAAT [XGTACX_site2764] — within error, 7.79 ± 0.54
- ATGAATAAATAAGACACACACGAAAATAAGTAAAAA [CACACA_site4216] — within error, 8.13 ± 0.81
- TATTTTGATTATTCAGTGTATAAATATATATATATA [CACACA_negctrl_site545] — higher, 8.95 ± 0.23
- TACAAATATATATGCACACACATATACATACAGATA [CACACA_site5238] — higher, 9.32 ± 0.35
- CATATATACGCATACACACACACACCCACACCCACA [CACACA_site1725] — within error, 8.21 ± 0.49
- TATTTATACCTATACACACACACACGGATATTTATA [CACACA_site7123] — within error, 7.87 ± 0.57
- ATATGCTTATTGTAAAGTACATTATTATTTTTCCTA [XGTACX_site5479] — within error, 7.62 ± 0.53
- AATTAACAAAAACACACACACACACCGACAAAAAAA [CACACA_site4444] — within error, 8.13 ± 0.33
- GATAAAATCACTGGTGCATGTAGATATATAATATTA [TGCATGCA_site589] — higher, 9.12 ± 0.085
- AAAAAAAAACAAAAAAGTACAAAATAAAAATACGTT [XGTACX_site4566] — within error, 7.76 ± 0.66
- CTCTTCATATATAATTGTACACACAAAAACGACATT [XGTACX_site4287] — within error, 8.42 ± 0.21
- AATAAATATATACATTGTACATATATAATATATATA [XGTACX_site1458] — within error, 7.94 ± 0.37
- TAAATTATAATATGCACACAAAATGTTATATTAAAA [CACACA_site376] — higher, 8.62 ± 0.23
- TATATATATTTTGGCTGTACATCAGCGTATATTTTT [XGTACX_site3233] — within error, 7.67 ± 0.54
- CCTATCCATGCATATACACACATATCTATTTATATA [CACACA_site6886] — within error, 8.7 ± 0.59
- ATTTACCTATATATTTGTACTTACATAATGCTACCT [XGTACX_site2693] — within error, 8.24 ± 0.67
- TAAAGAGAGACATCAACACACATACGTATGTATAGA [CACACA_site4896] — within error, 7.76 ± 0.64
- TAAAAAAAAATATATAAACACACATATTTATATACA [CACACA_site8469] — within error, 7.22 ± 0.38
- ATTCTATATGAAAAATGTACAAATAAAAATTCTAAG [XGTACX_site8900] — within error, 7.57 ± 0.49
- CCAATGTTTTCTTGTGTACACATCATTAAAGAAAAA [CACACA_site5300] — higher, 8.46 ± 0.014
- CACGCATACAGACACACACACACACCGATATATATA [CACACA_site8113] — within error, 8.34 ± 0.76
- CATGAAAATATTATGTGTACTTAATGCACATTCAAA [XGTACX_site1952] — higher, 10.3 ± 0.3
- AGGAGGATAGTTCACAGTACCCAGGAAATCTGCGGA [XGTACX_site4928] — within error, 8.26 ± 0.96
- TATGCAATAAAATATACACACAATATACTTATATAT [CACACA_site7691] — within error, 7.87 ± 0.4
- TTTATTTTCCAAAGGGTGCACATAGTTAAAACGATA [GTGCAC_site9855] — higher, 11.1 ± 0.29
- AATAAATACACATACACACACGACGCTAGTATATGT [CACACA_site6627] — within error, 7.64 ± 0.39
- AGAATAAATATGTGGTGTTATAGTATTAATGTTAAT [TGCATGCA_negctrl_site62] — within error, 7.75 ± 0.58
- ATAAATATACCAATCGGTACACATTTATACAAACAA [XGTACX_site7484] — within error, 7.75 ± 0.48
- GCTATAAATATAATCACACATAAATATATAATATAT [CACACA_site5144] — within error, 7.67 ± 0.38
- TCCTTATTTCATATTTTTAAATAATACAAAAAAAAA [CACACA_negctrl_site773] — within error, 7.62 ± 0.31
